# Results taken from the BET-seq Pho4 binding data (Le et al. 2018).
# This is one part of the list. These are noisy estimates, calculated here from bound and input reads.
# Molecular target: T1, Pho4 (S. cerevisiae) (UniProt P07270)
# T1 sequence: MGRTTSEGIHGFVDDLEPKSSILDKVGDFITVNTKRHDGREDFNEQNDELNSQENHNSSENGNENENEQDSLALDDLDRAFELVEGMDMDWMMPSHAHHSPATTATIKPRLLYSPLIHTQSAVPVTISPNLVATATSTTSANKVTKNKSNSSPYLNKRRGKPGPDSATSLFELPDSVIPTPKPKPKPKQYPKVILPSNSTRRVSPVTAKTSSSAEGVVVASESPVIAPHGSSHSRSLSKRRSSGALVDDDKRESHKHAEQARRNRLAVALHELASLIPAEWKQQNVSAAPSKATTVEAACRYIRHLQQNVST
# Experiment: relative binding free energy (BET-seq); higher = weaker binding
# Details: reference: library average
row,Sequence,relative binding free energy [kcal/mol]
1,TTCGACACGTGGTGAG,0.05
2,GAATGCACGTGAAGTT,0.32
3,TCGGGCACGTGTAAAG,-0.03
4,GGATCCACGTGTGGGT,0.07
5,TGGTTCACGTGCATGA,0.17
6,TTAAACACGTGGCGTT,-0.09
7,TAGAGCACGTGGGGTT,-0.21
8,ATTGGCACGTGGAAGA,0.04
9,GGGTTCACGTGTAATA,0.45
10,AGTCGCACGTGGCGGG,-0.1
11,GTGCTCACGTGTGTAT,0.15
12,GTTAGCACGTGGCTTG,0.01
13,CATGGCACGTGCTAGG,0.01
14,AACGGCACGTGTGAGG,-0.01
15,GAAAACACGTGGATGG,0.14
16,TCGTTCACGTGGGTCT,0.03
17,TTATACACGTGGTCAT,-0.07
18,TAATGCACGTGGTGAG,-0.16
19,CTTTTCACGTGTAGTC,0.39
20,TATCTCACGTGCGGGG,0.14
21,AGTGGCACGTGGGCGA,-0.31
22,GAGGTCACGTGTTCGG,0.14
23,TGTTGCACGTGTAGTA,0.07
24,TTCTTCACGTGGCGTT,0.19
25,GTGATCACGTGTTGTT,0.17

row,Sequence,relative binding free energy [kcal/mol]
1,AATAGCACGTGATGGG,-0.14
2,ATCAACACGTGAGGTA,0.38
3,GATTACACGTGGTGGG,0.18
4,AGTGGCACGTGAGAGA,0.2
5,GAACGCACGTGTCGGG,0.14
6,ATCTCCACGTGTGTGT,0.01
7,TCTAGCACGTGGGGGT,-0.1
8,GGTCACACGTGAGGGG,0.23
9,GGCGACACGTGTGGCT,0.24
10,AGAAGCACGTGGGGCG,-0.36
11,AGCGTCACGTGAGGAA,0.45
12,TGGAACACGTGGGGAA,-0.17
13,GTCGGCACGTGGGGAC,-0.06
14,GGGCGCACGTGGCTGT,-0.1
15,AGAAACACGTGAGGTG,0.25
16,ATGGGCACGTGATGTA,-0.11
17,GTTTTCACGTGTGGAT,0.38
18,TATATCACGTGTGTTG,0.13
19,AGGTGCACGTGACGGC,0.14
20,GAGGACACGTGGGGTA,-0.17
21,CTGGGCACGTGTTTCG,-0.08
22,CAATGCACGTGGGATT,-0.04
23,AGTTGCACGTGGTTCG,-0.02
24,ACAGACACGTGTTAGT,0.16
25,TGGCACACGTGACTGG,0.31

row,Sequence,relative binding free energy [kcal/mol]
1,AGCGTCACGTGGTGCT,-0.06
2,TAGGTCACGTGACTGT,0.24
3,GCGGTCACGTGTAGGA,0.27
4,TTCGGCACGTGCGGGT,-0.11
5,GTGCTCACGTGTCGAG,0.28
6,ATTGGCACGTGGCGTT,-0.17
7,ATTTACACGTGTGGAT,0.26
8,TGGAACACGTGGAGAG,0.08
9,TTTGTCACGTGACGGT,0.13
10,GGCTGCACGTGTGCGC,0.11
11,CGTGGCACGTGTGTAG,0.01
12,TTATCCACGTGTTAGA,0.04
13,AGTCGCACGTGTATGT,0.07
14,ATTTTCACGTGTGGGC,0.31
15,CTGATCACGTGGTGAA,0.22
16,TGTTGCACGTGTTTAA,-0.05
17,AGTAGCACGTGGAGGC,-0.23
18,TTGGGCACGTGATTCT,0.1
19,ATAGACACGTGAGGAT,0.24
20,TTAACCACGTGTTAGT,-0.07
21,AATTACACGTGGGTCT,0.01
22,CTTAGCACGTGTGGCA,-0.04
23,GTGGACACGTGTACGG,0.08
24,GTGATCACGTGGTTTG,0.24
25,GGTAACACGTGATTTA,0.23

row,Sequence,relative binding free energy [kcal/mol]
1,ATGGACACGTGGTAAG,-0.16
2,GTAAACACGTGGGGCG,-0.11
3,TTAAGCACGTGAATGT,0.15
4,TTTGTCACGTGCAGTC,0.15
5,TACTGCACGTGTTGGT,0.1
6,GTAGTCACGTGCAAGG,0.14
7,GGCTACACGTGTGTTA,0.1
8,CGGGACACGTGCTGTT,0.08
9,TGGTACACGTGATGGA,0.29
10,GTGTGCACGTGAAAAT,0.15
11,TTTTGCACGTGTTTAT,-0.05
12,TTTCACACGTGGTTTG,0.07
13,AGTAGCACGTGTTGGC,-0.09
14,TTAAGCACGTGCGTGT,-0.16
15,TTACGCACGTGGTGGG,-0.18
16,TTGAGCACGTGTAGTT,-0.06
17,GTCGTCACGTGAGTAG,0.3
18,GTTTCCACGTGAAAGT,0.45
19,GGGTTCACGTGTACGT,0.3
20,GTTGTCACGTGTCGGA,0.34
21,ATAGCCACGTGGAGTG,-0.13
22,GTGCCCACGTGAGTGG,0.11
23,TTAATCACGTGCGGGG,0.12
24,TCGGGCACGTGAGTCT,0.11
25,AAGGTCACGTGAGTGC,0.28

row,Sequence,relative binding free energy [kcal/mol]
1,TAGTTCACGTGTAGGG,0.31
2,ATGGACACGTGGGTTG,-0.14
3,GCCTGCACGTGTTTGG,0.07
4,ACGGTCACGTGACGGG,0.26
5,GTTTGCACGTGTAGAG,0.2
6,TATGACACGTGGCTTT,-0.1
7,TTTTCCACGTGGTGTC,-0.05
8,CGTGGCACGTGGTGAT,-0.2
9,GTGGACACGTGGGTAT,-0.06
10,TTGAGCACGTGTATAG,-0.01
11,AAGTCCACGTGTGTTT,0.03
12,GTGTTCACGTGTGGAC,0.22
13,CGTCGCACGTGGGTCG,-0.17
14,TTGGTCACGTGATGTC,0.27
15,TGGGACACGTGGACAT,0.17
16,GGAGGCACGTGCGAGT,-0.06
17,TTAAGCACGTGGAGCA,-0.09
18,GGGTGCACGTGGTGTG,0.06
19,GAGGGCACGTGAGAAG,0.26
20,TACGTCACGTGTTTTT,0.15
21,TTTGTCACGTGTCCAT,0.12
22,ATTGTCACGTGGGATC,0.01
23,TTTTACACGTGTAAAG,0.19
24,GAGATCACGTGATGAG,0.5
25,TGGAGCACGTGGGGCC,-0.2

row,Sequence,relative binding free energy [kcal/mol]
1,TTTGACACGTGGTAGT,0.01
2,ATGGGCACGTGTTTTT,-0.12
3,GGGAGCACGTGTTAAT,0.06
4,TAGTTCACGTGAGGTG,0.36
5,TGGGACACGTGGCAAT,-0.04
6,GGGCGCACGTGCCGGG,-0.32
7,AGCGGCACGTGAGTGT,0.09
8,TGGGGCACGTGGGATC,-0.12
9,AATGTCACGTGAGATG,0.37
10,AGAGACACGTGTGTAT,0.1
11,GTGGGCACGTGTGACA,-0.07
12,AATATCACGTGGGTAT,-0.15
13,AAGTTCACGTGTGCGT,0.17
14,ATTTGCACGTGTCATA,-0.12
15,GTAGGCACGTGTTCGT,-0.12
16,CAGTTCACGTGGGGTT,0.26
17,ATATTCACGTGTGACA,0.38
18,TTTATCACGTGTACGA,0.21
19,TTGGGCACGTGTTTAC,-0.08
20,TGATACACGTGGGTAT,-0.06
21,CATGTCACGTGAGTGG,0.17
